# The supplement of paper PMC8728848
# The other results are listed elsewhere or left out.
# Experiments:
# Assay in all cases: glycan array binding signal (z-score within array); higher = stronger binding
# Conditions in all cases: glycan notation: IUPAC condensed, linker removed
# GalNAc(b1-4)GlcNAc = biological target: GalNAc(b1-4)GlcNAc
# Summary of the method: (§1)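 Glycan array data were curated from 3228 arrays in the Consortium for Functional Glycomics database and kept only where the protein sequence was available. Glycan names were converted to IUPAC-condensed notation, and columns mapping to the same glycan were averaged. The binding signal is a within-array Z-score, averaged across arrays of the same protein sequence at different concentrations or buffers and across linkers. Negative Z-scores can be read as non-binding.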
# [1] = biological target: GalNAc(b1-4)GlcNAc(b1-2)Man
# Summary of the method: as §1
# [2] = biological target: GalNAc(b1-4)GlcNAc(b1-2)Man(a1-3)[GalNAc(b1-4)GlcNAc(b1-2)Man(a1-6)]Man(b1-4)GlcNAc(b1-4)GlcNAc
# Summary of the method: as §1
# [3] = biological target: GalNAc(b1-4)GlcNAc(b1-3)GalNAc(b1-4)GlcNAc
# Summary of the method: as §1
# GalNAc(b1-4)GlcNAc6S = biological target: GalNAc(b1-4)GlcNAc6S
# Summary of the method: as §1
# GalNAc(b1-6)GalNAc = biological target: GalNAc(b1-6)GalNAc
# Summary of the method: as §1
# GalNAc3S(b1-4)GlcNAc = biological target: GalNAc3S(b1-4)GlcNAc
# Summary of the method: as §1
# GalNAc3S(b1-4)GlcNAc3S = biological target: GalNAc3S(b1-4)GlcNAc3S
# Summary of the method: as §1
# [4] = biological target: GalNAc3S(b1-4)[Fuc(a1-3)]GlcNAc
# Summary of the method: as §1
# GalNAc4S6S(b1-4)GlcNAc = biological target: GalNAc4S6S(b1-4)GlcNAc
# Summary of the method: as §1
# GalNAc6S(b1-4)GlcNAc = biological target: GalNAc6S(b1-4)GlcNAc
# Summary of the method: as §1
# Glc(a1-4)Glc = biological target: Glc(a1-4)Glc
# Summary of the method: as §1
# [5] = biological target: Glc(a1-4)Glc(a1-4)Glc(a1-4)Glc
# Summary of the method: as §1
# Glc(a1-6)Glc(a1-6)Glc = biological target: Glc(a1-6)Glc(a1-6)Glc
# Summary of the method: as §1
# [6] = biological target: Glc(a1-6)Glc(a1-6)Glc(a1-6)Glc
# Summary of the method: as §1
# Glc(b1-4)Glc = biological target: Glc(b1-4)Glc
# Summary of the method: as §1
# Glc(b1-6)Glc = biological target: Glc(b1-6)Glc
# Summary of the method: as §1
# GlcA(b1-3)Gal = biological target: GlcA(b1-3)Gal
# Summary of the method: as §1
# GlcA(b1-3)GlcNAc = biological target: GlcA(b1-3)GlcNAc
# Summary of the method: as §1
# GlcA(b1-6)Gal = biological target: GlcA(b1-6)Gal
# Summary of the method: as §1
# [7] = biological target: GlcA3S(b1-3)Gal(b1-4)GlcNAc(b1-2)Man
# Summary of the method: as §1
# [8] = biological target: GlcA3S(b1-3)Gal(b1-4)GlcNAc(b1-3)Gal(b1-4)Glc
# Summary of the method: as §1
# [9] = biological target: GlcNAc(a1-3)Gal(b1-4)GlcNAc
# Summary of the method: as §1
# [10] = biological target: GlcNAc(a1-4)Gal(b1-3)GlcNAc
# Summary of the method: as §1
# [11] = biological target: GlcNAc(a1-4)Gal(b1-4)GalNAc
# Summary of the method: as §1
# [12] = biological target: GlcNAc(a1-4)Gal(b1-4)GlcNAc
# Summary of the method: as §1
# [13] = biological target: GlcNAc(a1-4)Gal(b1-4)GlcNAc(b1-3)Gal(b1-4)Glc
# Summary of the method: as §1
# [14] = biological target: GlcNAc(a1-4)Gal(b1-4)GlcNAc(b1-3)Gal(b1-4)GlcNAc
# Summary of the method: as §1
# [15] = biological target: GlcNAc(a1-4)Gal(b1-4)GlcNAc(b1-3)Gal(b1-4)GlcNAc(b1-3)Gal(b1-4)GlcNAc
# Summary of the method: as §1
# [16] = biological target: GlcNAc(a1-4)Gal(b1-4)GlcNAc(b1-3)Gal(b1-4)[Fuc(a1-3)]GlcNAc(b1-3)Gal(b1-4)[Fuc(a1-3)]GlcNAc
# Summary of the method: as §1
# [17] = biological target: GlcNAc(a1-6)Gal(b1-4)GlcNAc
# Summary of the method: as §1
# [18] = biological target: GlcNAc(b1-2)Gal(b1-3)GalNAc
# Summary of the method: as §1
# [19] = biological target: GlcNAc(b1-2)Man(a1-3)[GlcNAc(b1-2)Man(a1-6)]Man(b1-4)GlcNAc(b1-4)GlcNAc
# Summary of the method: as §1
# [20] = biological target: GlcNAc(b1-2)Man(a1-3)[GlcNAc(b1-2)Man(a1-6)]Man(b1-4)GlcNAc(b1-4)[Fuc(a1-6)]GlcNAc
# Summary of the method: as §1
# [21] = biological target: GlcNAc(b1-2)Man(a1-3)[GlcNAc(b1-4)][GlcNAc(b1-2)Man(a1-6)]Man(b1-4)GlcNAc(b1-4)GlcNAc
# Summary of the method: as §1
# [22] = biological target: GlcNAc(b1-2)Man(a1-3)[GlcNAc(b1-4)][GlcNAc(b1-2)Man(a1-6)]Man(b1-4)GlcNAc(b1-4)[Fuc(a1-6)]GlcNAc
# Summary of the method: as §1
# [23] = biological target: GlcNAc(b1-2)[GlcNAc(b1-4)]Man(a1-3)[GlcNAc(b1-2)Man(a1-6)]Man(b1-4)GlcNAc(b1-4)GlcNAc
# Summary of the method: as §1
# [24] = biological target: GlcNAc(b1-2)[GlcNAc(b1-4)]Man(a1-3)[GlcNAc(b1-4)][GlcNAc(b1-2)Man(a1-6)]Man(b1-4)GlcNAc(b1-4)GlcNAc
# Summary of the method: as §1
# [25] = biological target: GlcNAc(b1-2)[GlcNAc(b1-4)]Man(a1-3)[GlcNAc(b1-4)][GlcNAc(b1-2)[GlcNAc(b1-6)]Man(a1-6)]Man(b1-4)GlcNAc(b1-4)GlcNAc
# Summary of the method: as §1
# [26] = biological target: GlcNAc(b1-2)[GlcNAc(b1-4)]Man(a1-3)[GlcNAc(b1-4)][GlcNAc(b1-2)[GlcNAc(b1-6)]Man(a1-6)]Man(b1-4)GlcNAc(b1-4)[Fuc(a1-6)]GlcNAc
# Summary of the method: as §1
# [27] = biological target: GlcNAc(b1-2)[GlcNAc(b1-6)]Man(a1-6)[GlcNAc(b1-2)Man(a1-3)]Man(b1-4)GlcNAc(b1-4)GlcNAc
# Summary of the method: as §1
# [28] = biological target: GlcNAc(b1-2)[GlcNAc(b1-6)]Man(a1-6)[GlcNAc(b1-2)Man(a1-3)]Man(b1-4)GlcNAc(b1-4)[Fuc(a1-6)]GlcNAc
# Summary of the method: as §1
# [29] = biological target: GlcNAc(b1-2)[GlcNAc(b1-6)]Man(a1-6)[GlcNAc(b1-4)][GlcNAc(b1-2)Man(a1-3)]Man(b1-4)GlcNAc(b1-4)GlcNAc
# Summary of the method: as §1
# GlcNAc(b1-3)Fuc = biological target: GlcNAc(b1-3)Fuc
# Summary of the method: as §1
# GlcNAc(b1-3)Gal = biological target: GlcNAc(b1-3)Gal
# Summary of the method: as §1
binder,measurement,setting,value
"CGL (Crenomytilus grayanus), H2FH31 (protein) MTTFLIKHKASGKFLHPYGGSSNPANNTKLVLHSDIHERMYFQFDVVDERWGYIKHVASGKIVHPYGGQANPPNETNMVLHQDRHDRALFAMDFFNDNIMHKGGKYIHPKGGSPNPPNNTETVIHGDKHAAMEFIFVSPKNKDKRVLVYA",glycan array binding signal (z-score),GalNAc(b1-4)GlcNAc,1.31
same,glycan array binding signal (z-score),[1],1.47
same,glycan array binding signal (z-score),[2],-0.238
same,glycan array binding signal (z-score),[3],2.96
same,glycan array binding signal (z-score),GalNAc(b1-4)GlcNAc6S,1.38
same,glycan array binding signal (z-score),GalNAc(b1-6)GalNAc,-0.323
same,glycan array binding signal (z-score),GalNAc3S(b1-4)GlcNAc,-0.349
same,glycan array binding signal (z-score),GalNAc3S(b1-4)GlcNAc3S,-0.324
same,glycan array binding signal (z-score),[4],-0.353
same,glycan array binding signal (z-score),GalNAc4S6S(b1-4)GlcNAc,-0.382
same,glycan array binding signal (z-score),GalNAc6S(b1-4)GlcNAc,-0.377
same,glycan array binding signal (z-score),Glc(a1-4)Glc,-0.302
same,glycan array binding signal (z-score),[5],-0.314
same,glycan array binding signal (z-score),Glc(a1-6)Glc(a1-6)Glc,-0.33
same,glycan array binding signal (z-score),[6],-0.343
same,glycan array binding signal (z-score),Glc(b1-4)Glc,-0.247
same,glycan array binding signal (z-score),Glc(b1-6)Glc,-0.375
same,glycan array binding signal (z-score),GlcA(b1-3)Gal,-0.315
same,glycan array binding signal (z-score),GlcA(b1-3)GlcNAc,-0.199
same,glycan array binding signal (z-score),GlcA(b1-6)Gal,-0.346
same,glycan array binding signal (z-score),[7],-0.375
same,glycan array binding signal (z-score),[8],-0.414
same,glycan array binding signal (z-score),[9],-0.361
same,glycan array binding signal (z-score),[10],-0.453
same,glycan array binding signal (z-score),[11],-0.418
same,glycan array binding signal (z-score),[12],-0.358
same,glycan array binding signal (z-score),[13],-0.458
same,glycan array binding signal (z-score),[14],-0.308
same,glycan array binding signal (z-score),[15],-0.359
same,glycan array binding signal (z-score),[16],-0.386
same,glycan array binding signal (z-score),[17],-0.356
same,glycan array binding signal (z-score),[18],-0.385
same,glycan array binding signal (z-score),[19],-0.338
same,glycan array binding signal (z-score),[20],-0.365
same,glycan array binding signal (z-score),[21],-0.362
same,glycan array binding signal (z-score),[22],-0.282
same,glycan array binding signal (z-score),[23],-0.367
same,glycan array binding signal (z-score),[24],-0.324
same,glycan array binding signal (z-score),[25],-0.354
same,glycan array binding signal (z-score),[26],-0.359
same,glycan array binding signal (z-score),[27],-0.389
same,glycan array binding signal (z-score),[28],-0.303
same,glycan array binding signal (z-score),[29],-0.372
same,glycan array binding signal (z-score),GlcNAc(b1-3)Fuc,-0.323
same,glycan array binding signal (z-score),GlcNAc(b1-3)Gal,-0.363
